# Measurements: PubChem BioAssay AID2546 (National Center for Advancing Translational Sciences (NCATS), 2010)
# About 11,000 (3.5%) of roughly 310,000 compounds were called active. This list was built around the results that the source calls inconclusive (neither active nor inactive); the mix of calls is not that of the screen. The call rests on the fitted dose curve; in most records, active means well fitted inhibition curve with a large enough effect; inconclusive means small, poorly fitted or top-dose-only effect, or effect the other way; inactive means flat fitted curve, though single readings scatter. Potencies of inconclusive entries are left out as doubtful fits.
# Experiment: VP16 counterscreen qHTS for inhibitors of ROR gamma transcriptional activity;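 further: Gal4-VP16 expression switched on by copper sulfate through the metallothionein promoter; nearly all actives have a fitted effect of over 50% in size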
# Settings: Drosophila S2 Gal4-VP16 UAS-luciferase, luminescence, 20 h; activity, negative = inhibition: at 53.6 µM (top of the series)
# On the % scale 0 is the no-effect control and ±100 the full control effect; potency means the concentration at half of the fitted maximal effect; tags describe the fitted curve by direction and shape.
SMILES,Potency,"activity, negative = inhibition"
CCc1nnc(NC(=O)c2nc(S(=O)(=O)Cc3ccccc3)ncc2Cl)s1,active: 8.91 µM,–
COc1cccc(Cn2c(NCC(C)C)nc3c2c(=O)n(C)c(=O)n3C)c1,"inconclusive [inhibitor, single point]",–
O=C(O)C1CCCCC1C(=O)Nc1ccccn1 (stereo not given),inactive,–
CC(C)C1C(c2ccccc2)NC(c2ccccc2)CC1(O)c1ccc(F)cc1 (stereo not given),"inconclusive [inhibitor, partial curve, poor fit]",–
COCc1cc(=O)[nH]c(Nc2nc3ccc(C)cc3o2)n1,active: 3.16 µM,–
O=C(NC1CC2CCCC(C1)N2S(=O)(=O)c1ccccc1)c1ccccc1 (stereo not given),active: 12.6 µM,–
CN(C)/N=C/c1ccc(Sc2ccc([N+](=O)[O-])cc2[N+](=O)[O-])o1,"inconclusive [inhibitor, single point]",–
Fc1cccc(Cl)c1Cn1ncc2ccccc21,"inconclusive [activator, partial curve]",–
COc1cccc(C(=O)C2=NN(C(C)=O)CC2c2ccco2)c1 (stereo not given),inactive,–
CCCCCCCOC(=O)C[N+](C)(C)CCOC1CC2CCC1(C)C2(C)C (stereo not given),active: 12.6 µM,–
COc1cccc(NC(=O)CSc2nc3c(sc4ccccc43)c(=O)n2CCN(C)C)c1,–,inactive: -10.1% [at 10 µM]
COc1ccccc1NC(=O)CN1CCC(n2c(C)nc3cc(F)ccc32)CC1,inactive,–
O=C1C2CC=CCC2C(=O)N1c1ccc(Cc2ccncc2)cc1 (stereo not given),"inconclusive [inhibitor, single point]",–
CC1(C)Cc2c(sc(NC(=O)c3ccc4ncsc4c3)c2C(N)=O)C(C)(C)N1,"inconclusive [inhibitor, single point]",–
Cc1cccc2cc(CN(Cc3ccco3)C(=O)NC3CCCCC3)c(=O)[nH]c12,"inconclusive [inhibitor, single point]",–
C=CCn1cnc2c(c1=O)c1nc3ccccc3nc1n2-c1ccccc1,inactive,–
O=C(NCC(c1ccc(F)cc1)N1CCOCC1)c1cccc(Br)c1 (stereo not given),inactive,–
CC(C)CC(=O)Nc1ncc([N+](=O)[O-])s1,"inconclusive [inhibitor, partial curve]",–
Cc1ccc(C(C)NC(=S)NC2CCCCC2)c(C)c1 (stereo not given),active: 3.55 µM,–
O=C(/C=C/c1ccc(F)cc1)NC(=S)Nc1ccccc1C(=O)NC1CCCCC1,active: 12.6 µM,–
COc1ccc(C(=O)Nc2ccc3c(c2)C(=O)N(C)C3=O)cc1OC,"inconclusive [activator, full curve, poor fit]",–
CC(=O)NC(c1ccc(F)cc1)c1cccnc1 (stereo not given),inactive,–
CSc1nc2oc3c(c2c2nncn12)CC(C)(C)SC3,active: 12.6 µM,–
Cc1ccc(-c2[nH]c3ccccc3c2C(C[N+](=O)[O-])c2ccco2)cc1 (stereo not given),active: 22.4 µM,–
Cn1nnc(NC(=S)NC(=O)c2cccs2)n1,active: 12.6 µM,–
COCCNC(=O)CCc1c(C)nc2nc(-c3cc(OC)cc(OC)c3)nn2c1C,inactive,–
O=C(CCCCCN1C(=O)CCC1=O)Nc1ccc(Cl)c(C(F)(F)F)c1,"inconclusive [inhibitor, single point]",–

SMILES,Potency,"activity, negative = inhibition"
CCOc1cccc(SCc2noc(C(=O)NCC3CCCO3)c2C(=O)O)c1 (stereo not given),inactive,–
C=CCn1c(SCC(=O)Nc2ccc(N3CCOCC3)cc2)nc2ccccc2c1=O,inactive,–
Cc1ccc(C(NC(=O)N2CCCCC2)=C(Cl)Cl)cc1F,active: 7.08 µM,–
COc1ccc(C2Nc3ccccc3NC3=C2C(=O)CC(C)(C)C3)cc1O (stereo not given),inactive,–
CCCCNC(=S)N/N=C/c1ccc(C)s1,active: 2.51 µM,–
Cc1ccc(NC(=O)CC(O)(C(F)(F)F)C(F)(F)F)cc1,"inconclusive [inhibitor, partial curve, poor fit]",–
COc1ccc(-c2ccc(-c3nnc(-c4cc(OC)ccc4OC)o3)cc2)cc1,inactive,–
CC(C)c1ccc(C(=O)OC2CCOC2=O)cc1 (stereo not given),inactive,–
Cc1cc(C)nc(/N=C(\N)Nc2ccccc2-c2ccccc2)n1,active: 12.6 µM,–
CCn1c2ccccc2c2cc(/C=N/n3cn[nH]c3=S)ccc21,active: 7.08 µM,–
CC12CCC(=O)N1C(C(=O)Nc1cc(Cl)ccc1N1CCOCC1)CS2 (stereo not given),inactive,–
COC(=O)c1cccc(-n2nnnc2SCC(=O)Nc2cc(C)on2)c1,inactive,–
O=C(Nc1cccc(-c2csc(Nc3ccccc3)n2)c1)c1cc([N+](=O)[O-])cc(C(F)(F)F)c1,inactive,–
CN(C)c1ccc(/C=N/NC(=O)CN(c2ccccc2Cl)S(C)(=O)=O)cc1Br,"inconclusive [inhibitor, single point]",–
COc1ccc2cc3c(N)nn(C(=O)C4CCC(C(C)(C)C)CC4)c3nc2c1 (stereo not given),"inconclusive [inhibitor, single point]",–
O=c1[nH]c(-c2ccccn2)nc(C(F)(F)F)c1Br,active: 5.01 µM,–
Cc1cccc(NC(=O)Nc2cc(C)on2)c1,inactive,–
Cc1ccc(OCCC(=O)Nc2ccc(F)c(Cl)c2)cc1,"inconclusive [inhibitor, single point]",–
COc1ccc(CNCC(O)(c2ccccc2)c2ccc(F)cc2)cc1 (stereo not given),"inconclusive [inhibitor, single point]",–
CCCCCOc1ccc2oc(=O)c3c(c2c1)CCCN3C(=O)CN1CCCC(C(=O)OCC)C1 (stereo not given),"inconclusive [inhibitor, single point]",–
CC(=O)OC(C)C,inactive,–
CC(=O)Oc1ccccc1C(=O)NC(C)CCc1ccccc1 (stereo not given),"inconclusive [inhibitor, partial curve, poor fit]",–
O=C(NC(=S)Nc1ccccc1Cl)c1ccco1,"inconclusive [inhibitor, single point]",–
CCSc1nnc(NC(=O)c2ccc(C)cc2)s1,"inconclusive [inhibitor, single point]",–
Cc1cc(NC(=O)c2ccc(Cl)cc2)n(CCOC(=O)c2ccc(Cl)cc2)n1,active: 15.8 µM,–
COc1ccc(OC)c(CCNC(=O)C(C)n2nc(C)c3c(C)n(-c4ccc(C)cc4)nc3c2=O)c1 (stereo not given),inactive,–
CCOC(=O)C1=C(c2ccc(OC)cc2)C(=O)c2ccccc2C1=O,active: 4.47 µM,–

SMILES,Potency,"activity, negative = inhibition"
CC1=CN2C(=N)/C(=C/c3ccco3)C(=O)N=C2S1,active: 15.8 µM,–
CN(C)CCCn1cnc2c(c1=N)C(c1ccccc1)c1ccc3ccccc3c1O2 (stereo not given),"inconclusive [inhibitor, single point]",–
C/C(CCC12CC3CC(CC(C3)C1)C2)=N\NC(N)=S,active: 4.47 µM,–
CC(=O)Nc1ccc2nc(NC(=O)CCc3ccccc3)sc2c1,"inconclusive [activator, single point]",–
O=C(c1csc2ccccc12)N1CCN(c2ccc(Cl)c(Cl)c2)CC1,"inconclusive [inhibitor, single point]",–
CNS(=O)(=O)c1cccc(C(=O)NCC(c2ccco2)N(C)C)c1 (stereo not given),inactive,–
CCOC(=O)CN(C)C(=O)CCc1nnc(-c2ccsc2)o1,"inconclusive [inhibitor, single point]",–
C=CCn1c(SCC#N)nnc1-c1ccc2ncccc2c1,inactive,–
CCC(C)c1ccc(O)c(NC(=O)c2cncc(Br)c2)c1 (stereo not given),"inconclusive [inhibitor, partial curve, poor fit]",–
O=C(CCCC(=O)N1CCN(c2ccccc2F)CC1)c1ccccc1,"inconclusive [inhibitor, full curve]",–
Cc1ccc(/C=N/NC(=O)c2ccc3ccccc3c2)s1,active: 5.01 µM,–
C=CCOc1ccc(CN(C)Cc2nc3cc(C(F)(F)F)ccc3c(=O)[nH]2)cc1,"inconclusive [inhibitor, single point]",–
COc1cccc(NC(=S)NNC(=O)c2c([N+](=O)[O-])c(C)nn2C)c1,"inconclusive [inhibitor, partial curve]",–
O=C(N/N=C/c1cc([N+](=O)[O-])cc([N+](=O)[O-])c1O)/C(=C\c1cccs1)NC(=O)c1ccccc1,"inconclusive [inhibitor, single point]",–
C/C(=N\Nc1ncc(Cl)cc1Cl)c1ccccn1,active: 14.1 µM,–
CCc1ccccc1NC(=S)N1CCN(c2ccccc2F)CC1,"inconclusive [inhibitor, single point]",–
COc1ccc(S(=O)(=O)n2nc(OC(=O)c3c(-c4ccccc4Cl)noc3C)cc2N)cc1,inactive,–
COc1ccccc1NC1=C(NC(C)=O)C(=O)c2ccccc2C1=O,"inconclusive [inhibitor, single point]",–
CC1(C)S/C(=N/N=C/c2cccs2)NC1=O,active: 5.01 µM,–
Cc1sc2ncnc(N3CCN(CCOc4ccc(Cl)cc4)CC3)c2c1C,active: 3.55 µM,–
Cc1cccc(NC(=S)NN(Cc2ccccc2)c2ccccc2)c1C,active: 3.55 µM,–
CCC(C)C(=O)Nc1nnc(-c2cccs2)s1 (stereo not given),"inconclusive [inhibitor, single point]",–
Cc1ccc(-c2cc(C(=O)NCc3ccco3)c3ccccc3n2)s1,"inconclusive [inhibitor, single point]",–
CCN1CCCC1CNC(=O)c1ccc(Sc2ccccc2Cl)c([N+](=O)[O-])c1 (stereo not given),–,inactive: 1.47% [at 10 µM]
COc1cccc(/C=N/Nc2ncnc3scc(-c4ccccc4)c23)c1OC,active: 3.16 µM,–
COc1cccc(/C=C2/Sc3ccc(C(=O)NCCN4CCCCCC4)cc3NC2=O)c1,"inconclusive [inhibitor, single point]",–
